Experimental data as given in the supplement of paper PMC3334620.
The full ranking holds about 33,000 sequences; the median of “E-score (-0.5 to 0.5)” is about -0.043, and the highest 2% start at about 0.37. This is one part of the list.

biological target: T1, Upc2 (UniProt Q12151); assay: PBM E-score (8-mer binding enrichment) (E-score (-0.5 to 0.5)); higher = stronger / more preferred TF binding; most listed sequences are background and not binding sites; conditions: protein concentration: 200 nM; construct: GST-full length
T1 sequence: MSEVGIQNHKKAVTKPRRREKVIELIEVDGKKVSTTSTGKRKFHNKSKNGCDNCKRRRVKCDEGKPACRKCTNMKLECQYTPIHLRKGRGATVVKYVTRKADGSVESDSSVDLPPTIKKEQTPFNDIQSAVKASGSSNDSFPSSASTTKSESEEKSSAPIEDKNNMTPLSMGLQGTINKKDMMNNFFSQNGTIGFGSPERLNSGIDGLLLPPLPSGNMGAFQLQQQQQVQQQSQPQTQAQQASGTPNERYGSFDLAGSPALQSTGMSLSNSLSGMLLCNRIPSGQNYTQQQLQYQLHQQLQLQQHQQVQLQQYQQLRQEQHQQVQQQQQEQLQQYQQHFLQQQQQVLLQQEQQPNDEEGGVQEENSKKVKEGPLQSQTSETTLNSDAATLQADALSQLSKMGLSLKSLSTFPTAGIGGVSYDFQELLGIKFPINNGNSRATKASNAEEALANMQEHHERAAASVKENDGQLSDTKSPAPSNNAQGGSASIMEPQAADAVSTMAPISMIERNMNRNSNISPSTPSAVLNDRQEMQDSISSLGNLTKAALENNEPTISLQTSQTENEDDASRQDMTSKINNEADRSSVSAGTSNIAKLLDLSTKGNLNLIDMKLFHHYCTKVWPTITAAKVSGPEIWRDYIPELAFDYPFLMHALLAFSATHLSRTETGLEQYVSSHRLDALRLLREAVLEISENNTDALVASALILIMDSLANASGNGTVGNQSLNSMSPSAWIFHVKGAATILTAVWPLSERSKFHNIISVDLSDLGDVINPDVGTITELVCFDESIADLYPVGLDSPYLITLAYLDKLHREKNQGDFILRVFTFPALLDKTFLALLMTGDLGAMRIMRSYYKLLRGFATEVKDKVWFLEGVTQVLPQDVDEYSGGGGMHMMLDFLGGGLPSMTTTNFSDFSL
In short: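 Using PURExpress in vitro transcription/translation, GST-tagged yeast transcription factors were made in full-length or DNA-binding-domain form. These were applied at about 100-200 nM to double-stranded universal all-10-mer Agilent arrays, and bound protein was detected with fluorescent anti-GST. Scans were normalised with masliner before the Universal PBM Analysis Suite assigned E-scores to ungapped eight-base words pooled with their reverse complements.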

| Sequence | PBM E-score |
| --- | --- |
| ATCCTTAG | -0.132 |
| ATCTCACG | 0.0026 |
| CAAAAGGC | -0.132 |
| TTAAACAA | -0.0742 |
| CATCCGGG | -0.139 |
| CATTTTCC | 0.0262 |
| GGCACGCC | -0.19 |
| AATGAACA | 0.00069 |
| CGGCCACA | -0.173 |
| GCATGCTA | -0.083 |
| ACGACCCA | 0.283 |
| ATGTATAC | 0.263 |
| CATTGATC | -0.0522 |
| GAACTTTA | -0.0462 |
| CGGGCCTA | -0.18 |
| GACGAGCC | -0.00056 |
| CTGATGCC | -0.0983 |
| CTTTCTCC | -0.0597 |
| CTAATCAC | -0.0142 |
| ACTACATA | -0.225 |
| AACCGCAA | -0.0323 |
| GTCTCTAA | -0.0818 |
| CCAAAGCC | -0.0521 |
| CCGTCTAG | -0.196 |
| ACACAGTC | 0.00912 |

| Sequence | PBM E-score |
| --- | --- |
| CTCATGGC | -0.168 |
| TAGCTATA | 0.05 |
| GCCCTAAC | -0.211 |
| AAGGACTG | -0.192 |
| GTTCCCGA | 0.257 |
| CAGCACCC | -0.163 |
| GCTGGCAC | -0.278 |
| ATTTGTCC | -0.0368 |
| ATCAAGAG | -0.0343 |
| CTCACCAA | 0.00156 |
| ACGTGCGA | 0.106 |
| ATGGAATC | 0.0787 |
| ATTGGACC | -0.161 |
| ATCGGAAT | 0.0354 |
| CCTCTGGA | -0.117 |
| ACATAAGG | 0.0292 |
| GCCTGTCA | -0.217 |
| GGACGGTA | -0.121 |
| AGGACGAT | 0.0383 |
| AGGAACCG | 0.102 |
| CACGCGAC | -0.00138 |
| CGCGCATA | 0.0804 |
| GGTTACTA | -0.0998 |
| AACACATC | 0.115 |
| ATCCGACG | 0.176 |

| Sequence | PBM E-score |
| --- | --- |
| AGAGCGCT | -0.231 |
| AACTGACG | -0.116 |
| CCGTTCGC | 0.201 |
| AGTTGAAG | -0.0772 |
| CCGCAGCC | -0.0849 |
| CACATAAC | -0.00287 |
| ACACCCTA | 0.0638 |
| AAGCAACC | -0.017 |
| TAAGGCTA | 0.0758 |
| AAGAGATT | -0.125 |
| GCGACGAA | 0.216 |
| ACGTAAAA | 0.268 |
| CCTTTAAA | 0.0101 |
| AAGCAATG | -0.133 |
| CCCTTGTC | -0.172 |
| GGAGATAA | -0.021 |
| ATAGTGCC | 0.0198 |
| CCGCACGC | -0.0864 |
| ACCTTACA | -0.171 |
| CCTTTTGC | -0.11 |
| ACTTTAAG | -0.0539 |
| ACGCCTGC | -0.215 |
| GCATCCGC | -0.0671 |
| AGGATCCC | -0.108 |
| GCTCCTAA | -0.179 |

| Sequence | PBM E-score |
| --- | --- |
| ACACGCAG | 0.0737 |
| GGGATAAA | 0.0749 |
| GGTCAAAC | 0.21 |
| CCCTCGCA | 0.125 |
| GCAACTGA | 0.0086 |
| GCTCAGAA | -0.0808 |
| GTCGGAAC | 0.00455 |
| CGGCGTAA | 0.214 |
| CTCATACA | -0.0251 |
| AATTCCAA | -0.134 |
| CTTCCAGA | -0.028 |
| AAACAGAA | -0.115 |
| CCTCACTA | -0.191 |
| ATCGGCCC | -0.113 |
| TATTAGGA | 0.104 |
| GACATGCA | 0.00181 |
| ATGGGTCG | -0.0132 |
| GTCGCATA | 0.375 |
| CGACAGCA | 0.067 |
| GCATGTGA | -0.048 |
| AGATACAG | 0.0201 |
| GATCTCGA | -0.0418 |
| ACTGGCAG | -0.183 |
| AGGCCTTC | 0.00522 |
| CGACCTTC | 0.073 |

| Sequence | PBM E-score |
| --- | --- |
| ACCTGAGT | -0.0104 |
| ATTACTTC | 0.0331 |
| CCTTTGGA | -0.188 |
| CACTCACC | -0.171 |
| AAGGCTCT | -0.314 |
| AGTCCCCC | -0.307 |
| AGAAGAAT | -0.182 |
| ATGTCCCC | -0.08 |
| AGTCTCGG | 0.0764 |
| ATGGCATA | 0.145 |
| AGCCCATG | -0.143 |
| CTTATATC | -0.0716 |
| AGGATAGA | -0.212 |
| CCTAATCA | -0.0746 |
| AGATCCCC | -0.1 |
| CTCTTAAA | 0.203 |
| ACTGGATC | -0.204 |
| ATACTGCA | 0.0601 |
| CGCCACTC | -0.0892 |
| CAGATCAG | -0.106 |
| CGACTATA | 0.167 |
| CTATCCAC | -0.102 |
| AGCCCTAA | -0.191 |
| ACACACGA | 0.187 |
| AGAGAAAT | 0.0721 |

| Sequence | PBM E-score |
| --- | --- |
| AAACGTGG | 0.255 |
| GAGGTGCA | -0.0499 |
| AAAGCGCC | -0.116 |
| CGTTCCTA | 0.302 |
| AAATGAAT | -0.131 |
| AGATAATA | 0.0225 |
| CTCTTGCA | -0.139 |
| TAATGGCA | -0.0754 |
| ATCTCACC | -0.184 |
| ACCTTGAC | -0.26 |
| ACATCCTC | 0.0612 |
| ACCATGAT | -0.12 |
| CTAGTCAA | -0.105 |
| GGGTAGAC | -0.141 |
| CGGCCAAG | -0.145 |
| TTGGCAAA | 0.00835 |
| GCTCAAGA | -0.206 |
| CTGTATTC | 0.0741 |
| GGTGTGTA | 0.0581 |
| CCGAATCC | 0.141 |
| CCGATGAG | -0.191 |
| CCATTGCC | -0.162 |
| CGCTCGCC | 0.0259 |
| AGTCTCCA | -0.0495 |
| CTCCGCGA | -0.101 |

| Sequence | PBM E-score |
| --- | --- |
| CAGGACGG | -0.164 |
| ACAGTGCT | 0.141 |
| ATCTCAAT | 0.108 |
| ACGCTAAT | 0.12 |
| TAACCTTA | -0.166 |
| AATATACA | 0.0677 |
| GGTGGTGA | 0.0398 |
| CGTGTTCA | -0.00782 |
| ATTTAAAC | 0.241 |
| AGTCACTG | -0.0748 |
| CTCCTTAA | -0.22 |
| GGCTGGAC | -0.11 |
| ACGAACTC | 0.325 |
| ATATGTCG | 0.152 |
| GCCAGCGA | -0.219 |
| AGACCACT | -0.0709 |
| AATAAGTC | -0.164 |
| AACTTATT | 0.0645 |
| AACGGTTA | 0.319 |
| ACACTAGC | -0.181 |
| AACAGAGA | -0.236 |
| ATGGGGCC | -0.349 |
